In patent US20090291088A1, “THERAPEUTIC COMBINATIONS OF ANTI-IGF-1R ANTIBODIES AND OTHER COMPOUNDS” (Biogen Idec MA Inc., priority 2008, published 2009):

Target: T1, IGF-1R-expressing MCF7 cells (Homo sapiens, UniProt P08069)
T1 construct: endogenous in cells; host or cells: MCF7 human mammary adenocarcinoma cells
Assay: FACS staining of MCF7 cells with conditioned medium of chimeric antibody transfectants
Type: binding
Details: conditioned medium from transfected 293-EBNA cells
Protocol: The chP2A7 heavy chain expression vector and the chP2A7 light chain expression vector were co-transfected into 293-EBNA cells and transfected cells were tested for antibody secretion and specificity. Empty vector- and hu5c8-S228P/T299A IgG4 (a molecularly cloned CD40L-specific mAb)-transfected cells served as controls. […] CHO cells were co-transfected with the chP2A7 heavy chain expression vector and the chP2A7 light chain expression vector to generate stable lines expressing chimeric P2A7-aglycosylated huIgG4, kappa mAb.
The ch20C8 heavy chain expression vector and ch20C8 light chain expression vector were co-transfected into 293-EBNA cells and transfected cells were tested for antibody secretion and specificity. Empty vector- and hu5c8-S228P/T299A IgG4 (a molecularly cloned CD40L-specific mAb)-transfected cells served as controls. […] CHO cells were co-transfected with the ch20C8 heavy chain expression vector and ch20C8 light chain expression vector to generate stable lines expressing chimeric 20C8-aglycosylated huIgG4, kappa mAb.
The chP1G10 heavy chain expression vector and chP1G10 light chain expression vector were co-transfected into 293-EBNA cells and transfected cells were tested for antibody secretion and specificity (empty vector- and hu5c8-S228P/T299A IgG4 (a molecularly cloned CD40L-specific mAb)-transfected cells served as controls). […]

B1: ch20C8: chimeric 20C8-aglycosylated huIgG4, kappa mAb; SEQ ID NO:141, 143 (antibody)
heavy: DVQLQESGPDLVKPSQSLSLTCTVTGYSITSGYSWHWIRQFPGNKLEWMGYIHYSGGTNYNPSLKSRISITRDTSKNQFFLQLNSVTTEDTATYYCARSGYGYRSAYYFDYWGQGTTVTVSSASTKGPSVFPLAPCSRSTSESTAALGCLVKDYFPEPVTVSWNSGALTSGVHTFPAVLQSSGLYSLSSVVTVPSSSLGTKTYTCNVDHKPSNTKVDKRV[human IgG4 Fc with S228P T299A (EU numbers) not written out]
light: DIVLTQSPASLAVSLGQRATISCRASKSVSTSAYSYMHWYQQKPGQPPKLLIYLASNLESGVPARFSGSGSGTDFTLNIHPVEEEDAATYYCQHSRELPYTFGGGTKLEIKRTVAAPSVFIFPPSDEQLKSGTASVVCLLNNFYPREAKVQWKVDNALQSGNSQESVTEQDSKDSTYSLSSTLTLSKADYEKHKVYACEVTHQGLSSPVTKSFNRGEC
modifications: Chimeric antibody heavy chain; Chimeric antibody light chain
binding to IGF-1R-expressing MCF7 cells (FACS): bound with a titratable dose response
